Laboratory results: the supplement of paper PMC10338343
± gives the standard deviation. The list shows a part of the results, in another mix than the full data.

What follows are sequences tested on MIWI (PIWIL1) piRISC loaded with piRNA #1 (30 nt) (assay: pre-steady-state target cleavage rate (min^-1); MIWI and MILI are mouse PIWI proteins and EfPiwi is from a freshwater sponge; tags in brackets are library labels; higher = faster piRNA-guided slicing of the target). Conditions: guide: piRNA #1 5'p-UGAGGUAGUAGGUUGUAUAGUAUCCAGAGG; auxiliary factor: 500 nM mouse GTSF1.
Summary of the method: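 Active affinity-purified piRISC carrying one synthetic guide (1 nM) was mixed with a transcribed, DNA-blocked target RNA library […] in HEPES–potassium acetate buffer at 33 °C for 0–8 or 0–960 min, with or without 500 nM GTSF1 partner protein. Uncleaved targets were then sequenced and normalised to depth and to weakly complementary targets. Three trials were pooled, and k3 was capped at 0.0001 min^-1. A burst-and-steady-state fit was applied to obtain the pre-steady-state cleavage rate.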
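Further: 1 nM active piRISC with 0.1 nM target library at 33 °C single turnover.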

Row | Sequence | pre-steady-state target cleavage rate
1 | CCUCUCGUUACUAUACAACCUACUACCUCA | 1.76 ± 0.1
2 | GGAGACCUAACUAUACAAGCUACUAGCUCA | 0.259 ± 0.034
3 | GGUCUGGAUACUAUACAACCUACUACUCUCA | 1.2 ± 0.1
4 | GGAGACCUAAGCUAUACAACCUACUACCUCA | 0.856 ± 0.07
5 | GCAGUGGAUACUAUACAACCUACUACCUCA | 1.85 ± 0.095
6 | GGAGUGGAUUCAAUACAACCUACUACCUCA | 1.02 ± 0.071
7 | GGAGACGAUACUGAUACAACCUACUACCUCA | 1.47 ± 0.095
8 | GCUGUGGAUACUAUACAACCUACUAGCUCA | 0.0678 ± 0.022
9 | GGAGUGGAUACUAUACUACGUACUACCUCA | 0.382 ± 0.043
10 | GGAGACGAUACUAUACAACCUUCUACCUCA | 0.675 ± 0.033
11 | GGAGACCUAACUAUACAACCAACUAGCUCA | 0.00428 ± 0.0038
12 | GGAGACCAUACUAUACAACCUCACUACCUCA | 0.00294 ± 0.0027
13 | GGACUGGAUUCUAUACAACCUACUACCUGA | 0.628 ± 0.13
14 | GGACUGGAUACUAUACAACCUACUAUCCUCA | 0.442 ± 0.043
15 | GGUCUGGAUACUAUACAACCUACUAGGACA | < 0.0001
16 | GGAGACGAUAGUAAACAACCUACUACCUCA | 0.468 ± 0.061
